Whole data set: some 33,000 sequences, median “E-score (-0.5 to 0.5)” near -0.016, cut for the highest 2% near 0.32. The list shows a part of the results.
target: T1, Stp1 (UniProt B3LFK1); assay: PBM E-score (8-mer binding enrichment) (E-score (-0.5 to 0.5)); higher = stronger / more preferred TF binding; most listed sequences are background and not binding sites; details: protein concentration: 200 nM; construct: GST-full length
T1 sequence: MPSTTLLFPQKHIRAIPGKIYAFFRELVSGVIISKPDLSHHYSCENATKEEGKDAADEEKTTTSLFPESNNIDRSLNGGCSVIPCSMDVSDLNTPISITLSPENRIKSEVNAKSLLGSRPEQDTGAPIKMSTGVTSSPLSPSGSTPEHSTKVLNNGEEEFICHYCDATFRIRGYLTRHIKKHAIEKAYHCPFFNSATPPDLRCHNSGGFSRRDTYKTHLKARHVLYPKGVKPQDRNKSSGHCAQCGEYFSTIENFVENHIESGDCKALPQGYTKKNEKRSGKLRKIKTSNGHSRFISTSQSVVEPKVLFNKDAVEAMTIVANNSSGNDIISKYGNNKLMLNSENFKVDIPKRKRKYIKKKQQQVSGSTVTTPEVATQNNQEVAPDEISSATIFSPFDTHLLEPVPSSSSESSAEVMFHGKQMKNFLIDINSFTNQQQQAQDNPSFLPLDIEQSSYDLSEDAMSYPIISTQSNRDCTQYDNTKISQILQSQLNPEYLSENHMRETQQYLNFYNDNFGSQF
Outline: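 GST-tagged yeast TFs (full-length or DNA-binding domain) were made by PURExpress in vitro transcription/translation and applied at about 100-200 nM to universal all-10-mer Agilent arrays. The arrays were made double-stranded by primer extension, on fresh or once-stripped slides. Bound protein was detected with fluorescent anti-GST, and scans were normalised with masliner. Each ungapped eight-base word, pooled with its reverse complement, received an E-score (modified Wilcoxon-Mann-Whitney statistic) from the Universal PBM Analysis Suite.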

Sequence	PBM E-score
GCCGCTCA	0.381
TCTTACAA	-0.135
ATTAGGAC	-0.0811
ACGGGAGG	-0.18
CAACGAAA	0.211
GTTAATCA	0.187
CCCCGCGC	0.242
GCCCGGGA	-0.199
ACCACCCT	-0.23
ATCGGCAC	0.297
CTATGGGC	-0.102
AACACTTC	-0.112
GCTTGTCA	0.0363
CTCCCACA	-0.188
CGTACCGC	0.168
AACCGACA	0.123
CAATTTGG	0.00121
ACACGGGA	0.148
GGCCTTCA	-0.0707
AAATGGAG	0.0643
CGGAATCA	0.0443
CACGTATG	0.109
CAGGCAAC	-0.258
CATAACTC	-0.187
CGTGTCGA	0.107

Sequence	PBM E-score
GCAATAAA	0.202
AATATACG	0.017
AGCCTACC	-0.142
AACCTTCA	-0.187
AAGCATAT	-0.0129
ACCGGACA	-0.288
CGGCTAGA	0.193
ACGTGGAC	0.159
CAAAGCCC	-0.0858
AGGAGTTG	0.0218
GCCCCAGA	-0.136
CCACACCC	-0.0998
CATGATCG	-0.0196
CAGGCTAC	-0.18
CGCATATC	0.11
CTGGTCAC	-0.159
TACTCCCA	0.0254
AACAAGGT	0.00428
ATAAATTC	0.189
CCGCACTC	0.0993
AAGTCTAC	-0.287
CAACAAGA	0.014
AACTCCAA	-0.0303
CCACCTAC	-0.183
CATAAAAG	0.0311

Sequence	PBM E-score
AGGACCAA	-0.0753
AGATAGGA	-0.0603
ACATCGAA	0.144
AGGAGTAG	0.0438
CGCCCCAA	0.202
GCTGTCCC	-0.0405
CGTTTCTC	-0.17
ACTGGCTA	-0.0563
CTCAGTAC	-0.188
AGCGTGCC	0.126
GAGTTCCA	-0.157
CACGTAAA	0.0116
CCTCTGTC	-0.18
ACCATAAC	-0.0279
AAAAGGAT	0.0988
GACGTCAC	-0.189
ACTTACAT	0.0173
CCCGCTAC	-0.0384
AGAAACAC	0.0654
ACTCTTTG	-0.0491
CCAACCAC	-0.0157
AACTCACA	0.0429
TCGGGCCA	-0.23
CTAAGAAA	0.0483
ACCCTTAA	-0.207

Sequence	PBM E-score
ACTACCCT	-0.289
GACTCCAC	-0.371
AGCTGCAC	-0.111
ACCAACAC	0.0757
CCGTCCAA	0.0723
ACGACCGT	-0.11
GCAGGCAC	0.0604
AGGATCGC	-0.145
CGAGTACA	-0.138
AGCAGCAA	-0.0165
ACAGGGGT	-0.338
CGGAGTGC	0.117
AGCGTTTG	-0.194
GGGCGGGA	-0.11
ACATTTCT	0.0896
AGGGCAAC	0.156
CACTCAAG	-0.183
ATCGCGGC	0.238
CCATGCAG	-0.0466
AACCGGCA	-0.0148
CGAACGCA	0.249
GCGCCTCA	0.401
CACATAGG	-0.116
CAGGTTGA	-0.216
CCTCCATC	-0.349

Sequence	PBM E-score
AAAATAAG	0.0684
ATTGCTTC	-0.0312
AAAACAAC	-0.0645
CGCAACAA	0.0995
GCTTCTAA	-0.126
ATTTCCAG	-0.0961
CCCATATC	-0.109
CCCTTAAA	-0.0855
TCGTTACA	-0.0277
AAGGCCGG	0.128
GGTAGGGA	-0.00966
GAGGCGAC	0.155
AGCAACTA	0.0808
CCTTAGTC	-0.245
CAAAGTTA	0.235
CAAGCGAA	-0.0793
ATTTGGGG	-0.114
TCGGCCCA	-0.116
GGCTCGGA	-0.282
CTGGTTAC	-0.183
ATCTTAAT	0.0159
CTGTAGCA	-0.0299
AATCCATC	-0.0702
GCTTAGAA	-0.0455
ATACTCGA	-0.11

Sequence	PBM E-score
CGCGCGCG	0.405
CTGTAGAC	-0.0162
TTACACAA	0.295
TCGCTGCA	0.0175
CTGGATTA	0.00615
ACATGGGC	-0.00178
CGCCGTCA	0.216
ACCCTTCT	-0.205
TCCGCTAA	-0.0219
CGCTGTAC	-0.0719
GCTGCTCC	-0.169
AACGTAGC	-0.0957
ATGACTTA	0.00641
CACGGAAG	0.0821
GAGCGCGA	0.0541
ATCTGACC	-0.0188
GAGTGATC	-0.144
ATTTACGA	0.18
AGGTCCTC	-0.124
AGCGTGAA	-0.129
TAGGCAGA	0.0908
GCTGGGCA	-0.0152
CCACCTAG	-0.373
CATCATCG	-0.0866
TCCGGAGA	-0.275

Sequence	PBM E-score
ACCAACTA	0.13
AAGACCGC	-0.0872
ACGTCTTC	-0.153
ACCTATGC	0.0967
CGCGTTAG	0.223
ATACGTGA	0.0388
ATGTCTAG	0.154
CCTCGGTA	-0.25
CCCAGCCA	-0.171
AGGTGCTA	-0.115
GATGGTGC	-0.181
ATGAACTA	0.0852
ATATGAAT	0.117
AGGCCGGC	-0.0598
CCCGTTAG	-0.166
CGGCATAG	0.312
CCCATCAG	-0.248
TATTTTAA	0.116
ACGCAAAC	0.174
ACCCCAGC	-0.172
ATTACGAA	0.077
CCCGACAG	-0.174
